In PubChem BioAssay AID504832 (National Center for Advancing Translational Sciences (NCATS), 2011):
Screen size: about 310,000 compounds; about 18,000 (5.8%) were called active. Inconclusive results, whose numbers are uncertain, are shown with a selection of clear calls. Calls follow the shape of the dose curve; as a rule, active = well fitted inhibition curve with a large enough effect; inconclusive = small, poorly fitted or top-dose-only effect, or another doubt; inactive = no such curve, though single readings can be large or run the other way. No potency is given beside an inconclusive call; the fits are too rough.

Assay: Primary qHTS for delayed death inhibitors of the malarial parasite plastid, 48 hour incubation
Conditions: P. falciparum luciferase growth in erythrocytes; series mostly up to 28.7 µM; activity change, negative = inhibition: at the top concentration
How it was run: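 Compounds are pin-transferred into medium, infected erythrocytes (2% hematocrit, 0.1% parasitemia final) are added, and plates sit one parasite generation at 37 C in 5% CO2. Detection reagent is then added and luminescence measured.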
% is scaled to controls: 0 for no effect and ±100 for the full control effect; potency is read from the fitted curve at half-maximal effect; tags tell the direction and shape of the fitted curve.

SMILES	Potency	activity change, negative = inhibition
Cc1ccc(-c2c3c(=O)n(C)c(=O)n(C)c3cn2-c2ccccc2O)cc1	inconclusive [inhibitor, single point]	–
COc1ccc2oc(C(=O)Nc3ccccc3N3CCOCC3)c(C)c2c1	inconclusive [inhibitor, single point]	–
CC(=O)Nc1sc(C)c(C)c1C(=O)OCC(=O)N(CC(C)C)c1c(N)n(Cc2ccccc2)c(=O)[nH]c1=O	inconclusive [inhibitor, single point]	–
C=CCn1c(=N)c(C(=O)NCCCOC)cc2c(=O)n3cccc(C)c3nc21	inconclusive [inhibitor, single point]	–
CCN(CC(=O)NCc1ccc(Cl)cc1)C(=O)COc1ccc(C)cc1C	inconclusive [inhibitor, partial curve, poor fit]	–
CC(=O)c1cc2c(cc1NC(=O)CCc1c(C)nc3ncnn3c1C)OCO2	inconclusive [inhibitor, single point]	–
CCN(CC)CCN(C(=O)c1cc2ccccc2cc1OC)c1nc2ccc(OC)cc2s1	inconclusive [inhibitor, full curve]	–
COc1ccc(C(=O)CSc2nc(SC)ns2)cc1OC	inconclusive [inhibitor, full curve, poor fit]	–
COc1ccc(OC)c(-c2cc(C3CCN(C(=O)OC(C)(C)C)CC3)[nH]n2)c1	inconclusive [inhibitor, partial curve, poor fit]	–
CN(C)/C=N/c1ncc(C(=O)c2ccc(-c3ccccc3)cc2)s1	–	inactive: 33.2%
COc1ccc(C(=O)NCC(C)(C)SCc2c(C)cc(C)cc2C)cc1	inconclusive [inhibitor, single point]	–
Cc1ccc(OCCOC(=O)c2cc(S(=O)(=O)N3CCCCC3)ccc2N2CCOCC2)cc1	inconclusive [inhibitor, single point]	–
CC(C)CN1CCN(Cc2ccc(C#CC(C)(C)O)cc2)CC1CCO (configuration not stated)	inconclusive [inhibitor, single point]	–
Cc1ccc(C(=O)OCn2nnc3ccccc3c2=O)cc1[N+](=O)[O-]	–	inactive: 13.5%
CCCCN(C(=O)CSCC(=O)Nc1ccc(C)cc1)c1c(N)n(Cc2ccccc2)c(=O)[nH]c1=O	inconclusive [inhibitor, partial curve, poor fit]	–
Cn1cc(C(=O)N/N=C/C(Br)=C\c2ccccc2)ccc1=O	inconclusive [inhibitor, single point]	–
O=C(CCc1ccccc1)N1CCCC(Nc2ccc(F)cc2)C1 (configuration not stated)	inconclusive [inhibitor, full curve, poor fit]	–
